The whole screen tested about 46,000 compounds, of which about 60 (0.1%) were called active. Roughly 3% stayed inconclusive and do not appear here. The call rests on the fitted dose curve; in most records, active means well fitted inhibition curve with a large enough effect; inconclusive means small, poorly fitted or top-dose-only effect; inactive means no such curve, though single readings can be large or run the other way. Some of the results follow.
Test: Primary qHTS assay for Inhibitors of ovarian cancer metastasis using an organotypic tumor microenvironment (TME) model. Further: nearly all actives have a fitted effect of over 65% in size.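 On activity change, negative = inhibition: plate controls were DMSO wells for no effect and tomatine positive control wells for full effect.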
Conditions: SKOV3ip1-GFP adhesion/invasion on 3D omental model, fluorescence; series mostly up to 45.8 µM; activity change, negative = inhibition: at the top concentration
Procedure, shortened: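 Adhesion/invasion was scored as fixed GFP-labeled SKOV3ip1 cell counts (488/509 nm), normalized to DMSO and tomatine controls. Cancer cells in serum-free medium, with four compound doses (0.36-46 umol/L), sat 2 hr at RT then 16 hr at 37 C on a 48 hr fibroblast/mesothelial/ECM culture.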

Activity change, negative = inhibition, inactive:
Cc1ccc(NC(=O)c2cc3nc(-c4ccccc4)cc(-c4ccccc4)n3n2)cc1 29.7%
CCCCc1nn2c(=O)cc(COC(=O)c3ccc(NC(=O)C(CC)CC)cc3)nc2s1 -10.9%
CC(C)Cn1c(=O)c2sccc2n2c(CCCC(=O)N3CCN(c4ccc(F)cc4)CC3)nnc12 1.04%
Fc1ccc2[nH]c(-c3cccs3)cc2c1 -7.1%
COc1cccc(-n2c(SCC(=O)Nc3nnc(C)s3)nc3c([nH]c4ccccc43)c2=O)c1 0.597%
CCOC(=O)C1=C(CN2CCN(c3ccc(OC)cc3)CC2)NC(=O)NC1c1ccc(Cl)cc1 (stereo unspecified) -18.2%
CCOc1ccc(NC(=O)C2CCCN(S(=O)(=O)c3c(C)noc3/C=C/N(C)C)C2)cc1 (stereo unspecified) -6.99%
Cc1cc(CN2CCN(c3cccc(C)c3C)CC2)cs1 -7.07%
C[C@@H]1CC[C@@]2(OC1)OC1CC3C4CC=C5CC(O)CCC5(C)C4CCC3(C)C1[C@@H]2C (stereo partly specified) 9.32%
COCCNC(=O)CSc1nc(-c2ccccc2)[nH]c1-c1ccc(OC)cc1 7.64%
Cc1cc(C)cc(NC(=O)c2cnc3sc(N4CCCC4)nn3c2=O)c1 -0.736%
CCOC(=O)c1c(S(=O)(=O)N2CCC(C(=O)Nc3ccc(C)cc3C)CC2)c(C)n(C)c1C -9.97%
CCc1ccccc1NC(=O)c1nnn(Cc2ccc(Cl)cc2)c1N -17.3%
NCCc1nc2cccnc2n1-c1ccccc1 -21.3%
Cc1ccc(-c2nc(CSc3nncn4c3cc3occc34)c(C)o2)cc1 28.9%
COc1ccc(C)cc1NC(=O)N1CC(C)Sc2ccccc21 (stereo unspecified) 2.54%
Cc1ccc(Cn2cc(C(=O)c3ccc4c(c3)OCO4)c(=O)c3cc(C)ccc32)cc1 -10.9%
O=C(Nc1cccc(C(F)(F)F)c1)c1cc2nc(-c3ccc4c(c3)OCO4)cc(C(F)(F)F)n2n1 3.56%
Cc1ccc(OCC(=O)NCC2(N(C)C)CCCCC2)cc1C 14.8%
CC1CN(C(=O)CCC(=O)Nc2cc(F)ccc2F)c2ccccc2S1 (stereo unspecified) 2.32%
Cc1ccc(NC(=O)c2c(C)nc3sc(C(=O)Nc4ccc(F)cc4)c(N)c3c2-c2ccc(C)o2)c(C)c1 1.67%
Cc1ccc(CNc2oc(-c3ccc(COc4ccc(C)cc4)o3)nc2C#N)cc1 8.64%
CCCOc1ccc(C(=O)NCC2OCCc3ccccc32)cc1 (stereo unspecified) -14.7%
CCCc1nc2ccccc2n1CC(O)COc1ccc(C(=O)OC)cc1 (stereo unspecified) -6.43%
CCc1ccc(CNC(=O)c2cc3ccccn3n2)cc1 0.329%
CCOC(=O)C1CCCN(C(=O)Cn2ncc3c(C)n(Cc4ccccc4Cl)c(C)c3c2=O)C1 (stereo unspecified) 4.64%
COc1ccc(C(=O)Nc2ccc3oc(-c4ccc(F)cc4Cl)nc3c2)cc1 -2.77%
Cc1ccc2nc(NC(=O)CSc3nccn3-c3ccc(Cl)cc3)sc2c1 -3.78%
CC(C)(C)OC(=O)N1CCC(c2c(C(=O)N3CCN(c4ccccn4)CC3)cnn2-c2ccccc2)CC1 12.7%
COc1ccccc1CNc1cc(C)nc2nc(-c3ccc(C)cc3)nn12 -10.9%
COc1ccc(-c2nc(C)c(CCNC(=O)c3cccs3)s2)cc1OC 5.68%
COCCCN1C(=O)c2ccccc2CC1(C)C(=O)NC1CCCCC1 (stereo unspecified) 3.53%
COc1ccc(C2C(C(=O)Nc3ccc(Cl)cc3)=C(C)Nc3nc(SCc4cccc(C)c4)nn32)cc1OC (stereo unspecified) -17.8%
CCCn1c(=O)c2[nH]c(C34CC5CC3C[C@@H](C5)C4)nc2n(CCC)c1=O -4.48%
O=C(Nc1ccc(Cl)cc1F)c1cnc2sc(N3CCOCC3)nn2c1=O -1.06%
O=C(CSc1nnc(-c2ccccc2F)o1)Nc1cccc(C(F)(F)F)c1 1.91%
CCC1CCCCN1S(=O)(=O)c1ccc(C(=O)Nc2sc3c(c2C(N)=O)CCC3)cc1 (stereo unspecified) -9.92%
Cc1ccc(NC(=O)Cn2c(=O)oc3cc(S(=O)(=O)N4CCCCC4)ccc32)c(Cl)c1 -6.58%
Cc1cccc(Cn2c(SCc3ccc(C(=O)NCc4ccccc4F)cc3)nc3ccncc32)c1 -26%
c1ccc(-c2noc(-c3cccnc3NCc3ccco3)n2)cc1 0.955%
COc1ccccc1-c1noc(-c2ccc(NC3CCCCC3)c([N+](=O)[O-])c2)n1 -9.02%
Cc1c(-c2cccc(NC(=O)Nc3ccc(Cl)cc3)c2)nc2ncccn12 -6.35%
CC(C)(C)C1CCc2c(sc3nc(-c4cc5ccccc5oc4=O)[nH]c(=O)c23)C1 (stereo unspecified) 13.7%
CC1CCCCN1C(=O)Cn1ncc2c3ccccc3n(Cc3ccccc3F)c2c1=O (stereo unspecified) -17.9%
COc1ccc(CN(C(=O)c2cc3ccccc3oc2=O)C2CCS(=O)(=O)C2)cc1OC (stereo unspecified) 2.18%
CCN(CC)CCCNC(=O)CCCn1ncn2c(cc3occc32)c1=O 4.46%
COc1cc2c(cc1OC)CN(CCc1ccc(NC(=O)c3cccc4c(=O)c5cccc(OC)c5[nH]c34)cc1)CC2 0.448%
O=c1c(=O)n(Cc2ccc(Cl)cc2)ccn1Cc1ccc(F)cc1 -23.9%
COc1cccc(NC(=O)CCc2nc3c(C)nn(-c4ccc(C)cc4)c3n(C)c2=O)c1 5.68%
CCCCN(CCCNC(=O)CN1N=C(c2ccc(C)cc2)CCC1=O)c1ccccc1 5.88%
COCCCNC(=O)c1cnc2sc(N3CCCCCC3)nn2c1=O 12.2%
CCc1nc2cccnc2n1-c1ccc(CC(=O)Nc2c(C)cccc2C)cc1 0.0746%
CCN(CC)C(=O)CSc1nc2ccsc2c(=O)n1Cc1ccccc1Cl 10.2%
Cc1ccc(-c2nc(CNC(=O)Nc3ccccc3)c(C)o2)cc1 -18.8%
COc1ccc(-c2cn3cccnc3n2)cc1NC(=O)Cc1ccccc1 -5.39%
COc1cccc(OCC(=O)NCCS(=O)(=O)N2CCN(c3ccccc3F)CC2)c1 -18%
Cc1oc2ncn(CC(C)C)c(=O)c2c1C(=O)NCCc1ccccc1 -0.277%
COc1ccc(Cl)cc1NC(=O)CN1C(=O)C(C)(C)c2cc(S(=O)(=O)N3CCCCC3)ccc21 0.0477%
O=P(O)(O)C(O)(Cc1cccnc1)P(=O)(O)O -24.8%
Cc1ccccc1CNC(=O)c1oc2c(c1C)-c1[nH]ncc1CC2 -1.71%
CCOc1ccc(C2c3c(oc4ccc(C)cc4c3=O)C(=O)N2CCCN2CCOCC2)cc1 (stereo unspecified) -3.83%
CCOc1ccc(Nc2c(S(=O)(=O)c3ccc(Cl)cc3)cnc3ccc(OCC)cc23)cc1 2.82%
Cc1cn(C)c(CC(=O)NCc2ccccc2)c1C(=O)O 9.51%
Cc1ccsc1CN(C(=O)c1oc2ccc(Br)cc2c1C)C1CCS(=O)(=O)C1 (stereo unspecified) -9.42%
Cc1cc(N2CCN(C)CC2)nc2ccc(NC(=O)Nc3cccc(Cl)c3)cc12 -10.4%
O=C(CSc1ncc(-c2ccccc2)[nH]1)Nc1ccc(Cl)cc1 -19.2%
Cc1ccc(CNc2nc(-c3ccco3)nn2S(=O)(=O)c2ccc3ccccc3c2)cc1 -25.6%
O=C(NCCN1CCN(c2cccc(Cl)c2)CC1)Nc1ccccc1C(F)(F)F -2.77%
Cc1c(C)n(Cc2ccc(F)cc2)c2ccc(C(=O)NCc3ccco3)cc12 24.4%
CCOc1ccc(CCNC(=O)Cn2nnc(-c3ccccc3Cl)n2)cc1OCC -6.71%
CSc1ncc(C(=O)N2CCN(c3cccc(Cl)c3)CC2)c(C)n1 -6.47%
O=C(CCCn1c(=O)c2cccn2c2cccnc21)NCc1ccccc1Br 2.82%
O=C(CC1C(=O)N(c2ccccc2)C(=O)N1CCc1cccs1)Nc1ccc(F)cc1 (stereo unspecified) 0.418%
CCOC(=O)c1sc2ccccc2c1S(=O)(=O)N1CCN(c2cccc(C)c2)C(C)C1 (stereo unspecified) -3.88%
COc1ccc2c(c1)CC(C(=O)NCCCN1CCN(c3cccc(Cl)c3)CC1)CO2 (stereo unspecified) -25.3%
Cc1ccc(S(=O)(=O)Nc2cc3c(cc2NCc2ccccc2)n(C)c(=O)n3C)cc1 -1.99%
Cc1cccc(-c2nnn3c2nc(NCc2ccc4c(c2)OCO4)c2ccccc23)c1 63.6%
COc1cccc2c1ncc1c(-c3ccc(C)cc3)nn(-c3ccc(F)cc3)c12 -7.02%
CC(=O)OCC(=O)[C@@]12OC(C)(C)O[C@H]1C[C@H]1[C@@H]3C[C@H](F)C4=CC(=O)C=C[C@]4(C)[C@@]3(F)[C@@H](O)C[C@@]12C 25.4%
COc1ccc(CCNC(=O)c2cnn(-c3cccc(C)c3)c2C2CCN(C(=O)OC(C)(C)C)CC2)cc1OC -8.4%
CC(C)COc1ccc(C(=O)N2CCCCC2CCN2CCCCC2)cc1 (stereo unspecified) -14.1%
CC(=O)c1ccc(NC(=O)c2noc3c2CSc2ccccc2-3)cc1 -24.1%
CC(c1ccccc1)n1cc2c(c1-c1ccccc1Br)c(=O)n(C)c(=O)n2C (stereo unspecified) -14.1%
COc1ccc(-c2cnc(C)o2)cc1S(=O)(=O)Nc1c(C)cc(C)cc1C 3.28%
Cc1ccc(CNC(=O)c2c(O)nc3cc(C)ccn3c2=O)cc1 -3.03%
CCc1ccc(C2=C(C)C(N3CCC(C(=O)NCc4ccccc4)CC3)=NS2(=O)=O)cc1 -6.69%
Cc1ccc2c(c1)-c1c(cnc3cc(-c4ccc(F)cc4)nn13)CO2 42.6%
COc1cccc(NC(=O)CCc2c(C)nc3nc(CNC(=O)c4cccc(F)c4)nn3c2C)c1 -9.84%

outcome, inactive:
Cc1ccc(C)c(NC(=O)Cn2c(=O)n(-c3ccc(CC(=O)NCC4CCCO4)cc3)c(=O)c3ccccc32)c1 (stereo unspecified)
COc1ccc(-n2c(SCC(=O)N3CCc4ccccc43)nc3c([nH]c4ccccc43)c2=O)cc1
COCCNC(=O)Cn1c(=O)n(CCCCCC(=O)NCc2ccccc2Cl)c(=O)c2sccc21
Cc1ccc2c(c1)-c1c(cnn1CC(=O)N1CCN(c3ccccc3F)CC1)CO2
Cc1cc(C)n2c(Nc3ccc(C(C)C)cc3)c(-c3ccsc3)nc2n1
Cc1ccc2nc(Cl)c3cc(C(=O)N4CCCCC4C)sc3c2c1 (stereo unspecified)
Cc1ccccc1Nc1nn2c(=O)c3ccc(C(=O)NCCc4ccc(Cl)cc4)cc3nc2s1
O=C(Cn1c(=O)nc(-c2ccccc2)c2cc(Cl)ccc21)N1CCN(c2ccccc2F)CC1

Reference: PubChem BioAssay AID1963576 (National Center for Advancing Translational Sciences (NCATS), 2024)
